Source: patent publication US20210261648A1 (published 2021)
Numbering of substitutions follows the chain as printed. Numbers in names are those of the source. One block for each binder: values may come before it.

Legend:
[1] = target: T1, FcγRIa extracellular domain with C-terminal His tag (human, UniProt P12314 16-292); assay: SPR (Biacore T100), antibody captured by Protein A, FcγR as analyte
T1 construct: also called FcgRIa; not shown: His tag attached to the C terminus

[2] = target: T2, FcγRIIa type R extracellular domain with C-terminal His tag (human, UniProt P12318 34-217); assay: as above
T2 chain: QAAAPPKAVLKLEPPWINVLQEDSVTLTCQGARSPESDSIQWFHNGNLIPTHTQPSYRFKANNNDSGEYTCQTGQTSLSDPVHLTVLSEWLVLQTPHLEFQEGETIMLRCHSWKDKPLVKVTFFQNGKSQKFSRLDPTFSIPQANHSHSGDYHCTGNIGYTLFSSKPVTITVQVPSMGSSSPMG

[3] = target: T3, FcγRIIa type H extracellular domain with C-terminal His tag (human, UniProt P12318 34-217); assay: SPR (Biacore T100); * KD calculated with Equation 2 because binding was weak
T3 construct: extracellular domain; also called FcγRIIaH; FcgRIIaH; not shown: His tag attached to the C terminus
T3 sequence (looked up): T2 chain with R134H

[4] = target: T4, FcγRIIIa (allotype not stated in Reference Example 4) (human, UniProt P08637 partial chain); assay: as above
T4 construct: extracellular domain; not shown: His tag attached to the C terminus
T4 sequence (P08637 17-208): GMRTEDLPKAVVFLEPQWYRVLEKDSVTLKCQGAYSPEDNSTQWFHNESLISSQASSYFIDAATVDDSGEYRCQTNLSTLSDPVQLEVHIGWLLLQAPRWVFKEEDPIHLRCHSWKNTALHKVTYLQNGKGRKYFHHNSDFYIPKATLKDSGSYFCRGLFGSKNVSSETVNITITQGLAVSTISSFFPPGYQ

T1 sequence (P12314 16-292): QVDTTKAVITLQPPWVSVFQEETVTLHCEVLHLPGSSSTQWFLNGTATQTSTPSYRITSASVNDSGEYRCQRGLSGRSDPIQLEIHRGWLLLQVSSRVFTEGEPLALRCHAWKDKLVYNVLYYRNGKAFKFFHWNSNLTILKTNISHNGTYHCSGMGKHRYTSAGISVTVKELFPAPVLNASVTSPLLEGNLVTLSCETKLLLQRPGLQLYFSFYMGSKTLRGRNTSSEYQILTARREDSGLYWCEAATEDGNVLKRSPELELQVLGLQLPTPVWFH

Kd [1]: 0.0073 µM
Kd [2]: 12 µM
Kd [3]: 56 µM
Kd [4]: 51 µM
B1: IgG1-v1 (IL6R-G1d-v1/IL6R-L) (antibody)
heavy: QVQLQESGPGLVKPSETLSLTCAVSGHSISHDHAWSWVRQPPGEGLEWIGFISYSGITNYNPSLQGRVTISRDNSKNTLYLQMNSLRAEDTAVYYCARSLARTTAMDYWGEGTLVTVSS[skipping human IgG1 constant region with P238D (EU numbers)]
light: DIQMTQSPSSLSASVGDRVTITCRASQDISSYLNWYQQKPGKAPKLLIYYTSRLHSGVPSRFSGSGSGTDFTFTISSLQPEDIATYYCQQGNTLPYTFGQGTKVEIKRTVAAPSVFIFPPSDEQLKSGTASVVCLLNNFYPREAKVQWKVDNALQSGNSQESVTEQDSKDSTYSLSSTLTLSKADYEKHKVYACEVTHQGLSSPVTKSFNRGEC
notes: IL6R-G1d with P238D (EU numbering)

Kd [1]: 0.00046 µM
B2: IgG1-v2 (IL6R-G1d-v2/IL6R-L) (antibody)
heavy: QVQLQESGPGLVKPSETLSLTCAVSGHSISHDHAWSWVRQPPGEGLEWIGFISYSGITNYNPSLQGRVTISRDNSKNTLYLQMNSLRAEDTAVYYCARSLARTTAMDYWGEGTLVTVSS[skipping human IgG1 constant region with L328E (EU numbers)]
light: B1 light
notes: IgG1 Fc variant
